These results are taken from PubChem BioAssay AID1362 (SRMLSC, 2008).

Molecules are shown by their SMILES. The list shows a part of the results. Further columns of the screen follow, without active or inactive calls. Compounds called inactive in the main read-out are mostly missing here.

The experiment is described as follows: growth inhibition of WT strain, primary screen, mitochondrial fusion inhibitor project, WT and mutant strains, chemical genetic (AID 1362). Note: tested in S. cerevisiae. The settings on record: mitochondrial fusion phenotypic screen, at 10 µM.
A word on the inhibition: it is the relative decrease from the control value, in per cent. For `COc1ccccc1/C=C/C=N\N1CCN(Cc2ccccc2Cl)CC1`, the inhibition was determined as 5.72%.
On to `Cc1cc(C)cc(NC(=S)NC2CC3CCC(C2)N3Cc2ccco2)c1` (stereo not given), for which the inhibition was found to be 1.07%.
In the case of `NNC(=O)c1ccc2nc(-c3ccc(Br)cc3)cn2c1`, the inhibition worked out at 66.4%.
Consider `CCC(C)(C)NC(=O)CN(C(=O)c1snc(C(N)=O)c1N)c1ccc2c(c1)OCCO2`, for which the inhibition worked out at 12.2%.
With `Fc1ccc(-c2csc(=S)[nH]2)cc1`, the inhibition is 46.2%.
Take `Nc1ccc(N2CCCCC2)cc1N1CCCCC1`: the inhibition was determined as 38.1%.
As for `CC(NC(=S)Nc1cccc(C(F)(F)F)c1)C(C)(C)C` (stereo not given), the inhibition was 25.1%.
`CC1CCCN(CC(=O)Nc2ccc(S(=O)(=O)NC3CCCCC3)cc2)C1` (stereo not given): the inhibition came out at 96.9%.
The figure for `CCc1cccc(C)c1NC(=S)NCCc1c(C)[nH]c2ccc(C)cc12` is -14.1%.
Take `Cc1cccc(OCCn2c(NC(=O)c3ccco3)nc3ccccc32)c1`: the inhibition came out at 29.6%.
On to `S=C(Nc1ccccc1Oc1ccccc1)NC1CCCC1`, for which the inhibition was determined as 54.8%.
Regarding `O=C(Oc1ccc2ccccc2c1Cl)N1CCCCCC1`, the inhibition was 37.4%.
Regarding `CC1(C)CC(c2nc(-c3ccc(Cl)cc3)cs2)CCS1` (stereo not given), the inhibition was determined as 48.4%.
`O=C(N/N=C/c1c[nH]c2ccccc12)C1CC1(c1ccccc1)c1ccccc1` (stereo not given): the inhibition was determined as 6.75%.
Regarding `COc1ccc(CS(=O)(=O)/C(Cl)=C(/Cl)C(=O)Nc2ccc(OC)nc2)cc1`, the inhibition was found to be 21%.
Take `CCOC(=O)C1CCN(c2nc(-c3ccc(C)cc3)nc3ccccc23)CC1`: the inhibition came to 33.9%.
The figure for `S=C(NCCCc1ccccc1)Nc1ccc(Cl)cc1` is 49.8%.
In the case of `S=C(Nc1ccc(Oc2ccccc2)cc1)NC1CCCCCC1`, the inhibition is 15.7%.
On to `CC(C)C1Cc2c(sc3[nH]c(=S)n(Cc4ccccc4)c(=O)c23)CO1` (stereo not given), for which the inhibition turned out to be 29.2%.
Under `Cc1cccc(NC(=S)NC2CCCC2)n1` stands 58%; under `COc1ccc2nc(NC(=O)CN(c3ccc(C)cc3)S(=O)(=O)c3c(C)nn(C)c3C)sc2c1`, 5.15%; under `Cc1cc(N/N=C/c2ccccc2Br)nc2ccccc12`, 63.6%.
The figure for `O=C(Nc1nc2ccc(F)cc2s1)c1ccccn1` is 72.6%; for `COc1ccc(-c2nsc3c(N4CCCCC4C)ncnc23)cc1` (stereo not given) it is 1.31%.
Regarding `Cc1cccc(NC(=S)NC(C)CCc2ccccc2)c1` (stereo not given), the inhibition came to 67.3%.
On to `COc1cccc(-c2nc(-c3ccccn3)no2)c1`, for which the inhibition is -13.1%.
For `Clc1ccc(CSc2nnc(CNc3cccc(Cl)c3)o2)cc1`, the inhibition is 50.4%.
Turning to `CCN(CC)S(=O)(=O)c1cccc(C(=O)Nc2sc3c(c2C(N)=O)CCCC3)c1`, the inhibition stood at 16.4%.
Regarding `Cc1ccc(-c2c(C(=O)NCc3ccc(F)cc3)oc(=O)c3ccccc23)cc1`, the inhibition came to 18.8%.
Under `CCc1ccc(NSc2ccccc2[N+](=O)[O-])cc1` stands 54.8%.
Consider `COc1cccc(CN(C)c2nc(-c3cccs3)nc3ccccc23)c1`, for which the inhibition turned out to be 36.5%.
The figure for `c1ccc(-c2nc(N3CCN(c4ccccc4)CC3)nc(-n3ccnc3)n2)cc1` is 53.3%; for `COC(=O)c1sccc1NC(=S)N1CCN(c2cc(C)ccc2C)CC1` it is 69.7%.
Regarding `O=c1[nH]cnc2c1c(-c1ccccc1)cn2-c1ccc(Br)cc1`, the inhibition was found to be 67%.
As for `CC(C)(C)C1CCc2c(sc(NC(=O)c3cccs3)c2C(=O)N2CCCCC2)C1` (stereo not given), the inhibition came out at 21.8%.
Regarding `CC(=O)c1c(C)[nH]c(C(=O)CSc2nnc(-c3ccc(Cl)cc3)n2CC2CCCO2)c1C` (stereo not given), the inhibition is -3.46%.
With `CCCCSc1nnc(-c2ccc(C)cc2)c2ccccc12`, the inhibition worked out at 14%.
`CCOC(=O)c1c(C)[nH]c(C)c1C(=O)COC(=O)/C=C/c1ccc(Cl)cc1`: the inhibition turned out to be 35.5%.
For `CCNC(=S)N(CCc1c(C)[nH]c2ccc(Cl)cc12)Cc1ccco1`, the inhibition worked out at 38.8%.
Regarding `CCCCCC/C(C)=C1/SC(=S)NC1=O`, the inhibition is 85.1%.
For the compound `COc1ccc(S(=O)(=O)Nc2cc(Sc3ncn[nH]3)c(O)c3ccccc23)cc1`, the inhibition amounted to 87.5%.
Turning to `Cc1ccn2c(Nc3ccccc3)c(-c3ccccn3)nc2c1`, the inhibition amounted to 72.3%.
`COc1ccc(NC(=O)CSc2ccc3c(c2)OCCO3)cc1OC`: the inhibition was 8.67%.
As to `O=C(CCc1ccccc1)NC(=S)Nc1ccccc1Br`, the inhibition came out at 28.6%.
As for `NCCOc1ccc(C23CC4CC(CC(C4)C2)C3)cc1`, the inhibition was 95.6%.
For `CCC(=C(c1ccc(OC)cc1)c1ccc(OC)cc1)c1cn(CC(O)CN2CCN(C)CC2)c2ccccc12` (stereo not given), the inhibition is 76.3%.
Under `CCNC(=S)N/N=C/c1cccc(OCc2c(F)cccc2Cl)c1` stands 35.2%; under `Cc1ccc(NCC(=O)N/N=C/c2cc3ccccc3nc2Cl)cc1`, -9.45%.
Take `Cc1cccc(C(=O)NC(C(=O)Nc2nc(-c3ccccn3)cs2)C(C)C)c1` (stereo not given): the inhibition is -9.04%.
On to `Cc1ccc(CNCC(O)(c2ccccc2)c2ccc(Cl)cc2)cc1` (stereo not given), for which the inhibition was 14.7%.
Regarding `Cc1ccc(Sc2cnn(-c3ccccc3)c(=O)c2Cl)cc1`, the inhibition was 41.4%.
As for `O=C(Nc1ccc([N+](=O)[O-])cc1)Nc1ccc(N2CCOCC2)c2nonc12`, the inhibition stood at 53.1%.
For `CC12CCC(C(=O)N(Cc3ccccc3)Cc3ccccc3)(OC1=O)C2(C)C` (stereo not given), the inhibition worked out at 53.5%.
The figure for `CCN1/C(=C/c2ccc3cc(C)cc(C)c3[n+]2CC)Sc2cc(C)ccc21` is 90.4%; for `O=C(O)c1ccc(C=C(c2nc3ccccc3s2)c2nc3ccccc3s2)cc1` it is 28.3%.
`CCC1CCCCN1c1cc(C)nc2cc(-c3cccc(C)c3)nn12` (stereo not given): the inhibition is 37.4%.
The figure for `O=C(Nc1ccc(Cl)c(Cl)c1)c1ccc(Cn2cc(Cl)cn2)cc1` is 27.9%; for `Cc1ccc(O)c(-c2cc(-c3ccccc3C)[nH]n2)c1` it is 76.7%.
Take `CC(C)(C)C1CCc2c(sc(NC(=O)CSc3ncn[nH]3)c2C#N)C1` (stereo not given): the inhibition came out at 21.9%.
For `O=C(COc1ccc([N+](=O)[O-])cc1)NNC(=S)NC(=O)c1ccc(Br)cc1`, the inhibition was 45.3%.
On to `c1ccc(N/N=C2\CCCc3ccccc32)nc1`, for which the inhibition came to 29%.
Take `Cc1cc(C)cc(-n2c(C)cc(/C=N/NC(=O)CN(c3c(C)cccc3C)S(C)(=O)=O)c2C)c1`: the inhibition is -1.45%.
As for `O=C(Oc1ccc(-c2nnco2)cc1)N(c1ccccc1)c1ccccc1`, the inhibition turned out to be 14.3%.
Under `Cc1cc(C)c(Cn2cnc(-c3ccc([N+](=O)[O-])cc3)c2)c(C)c1` stands 54.3%; under `CC(C)CCNC(=S)Nc1ccc(Br)cc1`, 24.4%.
The figure for `Cc1nc(S/C(=C/c2ccc(-c3cccc(Cl)c3)o2)C(=O)O)n[nH]1` is 64.5%; for `O=C1CCC(/C=C/c2ccccc2)=NN1Cc1ccccc1Cl` it is 41.9%.
For the compound `O=C(N/N=C/c1c(Cl)cccc1Cl)c1n[nH]c2c1CCCC2`, the inhibition was -8.87%.
`COc1ccc(/C=C2\CCc3ccccc3C2=O)cc1Cn1nc(C)cc1C`: the inhibition stood at 69%.
Take `O=C(c1cc(-c2ccccc2)nc2ccccc12)N1CCc2ccccc2C1`: the inhibition was 57.5%.
In the case of `O=C(CSc1ncnc2c(-c3ccc(Cl)cc3)nsc12)c1ccccc1`, the inhibition worked out at 69.2%.
As to `CCOc1ccccc1-n1c(CN2CCN(C(=O)c3ccco3)CC2)nc2ccccc2c1=O`, the inhibition worked out at 8.43%.
For `N#Cc1ccc(-c2cccnc2)nc1SCc1ccc(Cl)c(Cl)c1`, the inhibition worked out at 26.6%.
Take `COc1ccccc1-c1c(C#N)c(N)nc2c1CCc1ccccc1-2`: the inhibition was found to be 42.1%.
Consider `CCc1ccccc1NC(=O)/C(=C/c1ccco1)c1ccccc1`, for which the inhibition was found to be 21.9%.
As for `CCc1ccc(C2=NN(c3ccc(S(N)(=O)=O)cc3)C(c3ccc(F)cc3)C2)cc1` (stereo not given), the inhibition was 59.4%.
As to `COc1cc(OC)c(NC(=S)Nc2cc(Cl)cc(Cl)c2)cc1Cl`, the inhibition was determined as 48.9%.
For `O=C(Nc1ccccc1)Nc1ccc(Cl)c([N+](=O)[O-])c1`, the inhibition was determined as 63.5%.
Take `Cc1cccc2sc(N(CCCN(C)C)C(=O)COc3ccc(Cl)cc3)nc12`: the inhibition came to 88.7%.
As to `COc1ccc(Cl)cc1NC(=S)NCCSc1ccc(C)cc1`, the inhibition was determined as 48.8%.
As for `Cc1cc(-c2nn(-c3ccccc3F)cc2CN2CCN(c3ccccn3)CC2)c(C)s1`, the inhibition was found to be 32%.
Take `Cc1ccc2c(N)c(C#N)sc2n1`: the inhibition was 0.66%.
For the compound `COc1ccc(OC)c(-c2cc(C3CCN(c4cc(Cl)nc(N)n4)CC3)[nH]n2)c1`, the inhibition was -13.2%.
Consider `CN(Cc1cccs1)c1nc(-c2cccnc2)nc2ccccc12`, for which the inhibition was determined as 43.5%.
Under `CC1(C)C(=O)OC(c2cccn2-c2cccc([N+](=O)[O-])c2)C2(CCCCC2)C1=O` (stereo not given) stands 18.4%; under `CCCCNC(=S)N(C)/N=C/c1c(F)c(F)c(F)c(F)c1F`, 4.89%.
Consider `COc1cccc(C(=O)Nc2nc(-c3ccccc3)c(-c3ccccc3)o2)c1`, for which the inhibition worked out at 27.1%.
The figure for `CSc1ccc(/C=N/n2c(Cc3ccc(Br)cc3)n[nH]c2=S)cc1` is 24.3%.
With `CCOC(=O)C1=C(c2cccc(Oc3ccccc3)c2)NC(=S)NC1C` (stereo not given), the inhibition was found to be 23.6%.
Take `CCN1/C(=C/c2ccc3cc(C)ccc3[n+]2C)Sc2ccc3sccc3c21`: the inhibition was found to be 80.1%.
Consider `O=C(Nc1ccc(Cl)c(S(=O)(=O)Nc2ccccc2Cl)c1)c1cccs1`, for which the inhibition was 81.3%.
With `Cc1cc(=O)oc(C)c1C(=O)Nc1ccc2nsnc2c1`, the inhibition is -8.26%.
Under `CC1=CCC[C@@H]2[C@@](C)(CC/C(C)=C/C(=O)O)[C@H](C)CC[C@@]12C` stands -14.9%.
In the case of `Cc1ccc(C)c(N2CCN(C(=O)Cc3cn(C)c4ccccc34)CC2)c1`, the inhibition was found to be 3.19%.
Regarding `Cc1cccc(C(=O)c2cnc3ccccc3c2-c2ccccc2)c1`, the inhibition was found to be 29%.
On to `CCCCNC(=S)N1CCN(C(c2ccccc2)c2ccccc2)CC1`, for which the inhibition was found to be 20.6%.
The figure for `Oc1cccc(/C=N/N(Cc2ccccc2)c2ccccc2)c1` is 88.3%; for `CC(C)SC1=NC(C)(C)C=C(/C=C/c2ccc(Cl)cc2Cl)N1` it is 30.4%; for `CC(C)SC1=NC(C)(C)C=C(/C=C/c2c(Cl)cccc2Cl)N1` it is 33.3%.
Turning to `CCC1(c2ccccc2)NC(=S)N(c2ccc(C)c(C)c2)N1` (stereo not given), the inhibition came out at 53.9%.
For the compound `CCOc1cc(/C=C2/SC(=S)NC2=O)ccc1OC(=O)c1ccco1`, the inhibition is 34.7%.
With `COc1cc(/C=C2\SC(=O)N(c3ccccc3Cl)C2=O)cc([N+](=O)[O-])c1O`, the inhibition was determined as 32.9%.
On to `COc1cc(/C=C2\SC(=O)N(Cc3ccc(F)cc3)C2=O)cc([N+](=O)[O-])c1O`, for which the inhibition turned out to be 44.7%.
Regarding `COCCN=c1scc(-c2cc(OC)ccc2OC)n1/N=C/c1c[nH]c2ccccc12`, the inhibition came out at 12.7%.
Under `C=CCc1c(C)c(C#N)c2nc3ccccc3n2c1NCCN(C)C` stands 59.2%; under `O=C(COC(=O)c1ccccn1)Nc1cccc(Cl)c1Cl`, 6.98%; under `CC12CCC(c3c(C(=O)O)nn(-c4ccc(F)cc4)c31)C2(C)C` (stereo not given), 4.67%.
Under `CCOC(=S)SCC(=O)Nc1nc(-c2ccccc2)cs1` stands 79%; under `O=C1NN=C(c2ccc(Cl)cc2)CC1c1cccc(Br)c1` (stereo not given), 57.7%.
Under `O=C1CC(C(=O)NCc2ccccc2)C2(CCCC2)O1` (stereo not given) stands 11.4%.
